The campaign covered roughly 310,000 compounds. About 2,200 (0.71%) showed an effect of 50% or more. Effects have a minus sign here. Some of the results follow.

For the experiment, the target named is human ether-à-go-go-related gene (hERG) potassium channel (human, UniProt Q12809). As to the kind of experiment: primary screen, population patch clamp on CHO cells stably expressing hERG.
human ether-à-go-go-related gene (hERG) potassium channel, sequence (Q12809 whole entry, looked up): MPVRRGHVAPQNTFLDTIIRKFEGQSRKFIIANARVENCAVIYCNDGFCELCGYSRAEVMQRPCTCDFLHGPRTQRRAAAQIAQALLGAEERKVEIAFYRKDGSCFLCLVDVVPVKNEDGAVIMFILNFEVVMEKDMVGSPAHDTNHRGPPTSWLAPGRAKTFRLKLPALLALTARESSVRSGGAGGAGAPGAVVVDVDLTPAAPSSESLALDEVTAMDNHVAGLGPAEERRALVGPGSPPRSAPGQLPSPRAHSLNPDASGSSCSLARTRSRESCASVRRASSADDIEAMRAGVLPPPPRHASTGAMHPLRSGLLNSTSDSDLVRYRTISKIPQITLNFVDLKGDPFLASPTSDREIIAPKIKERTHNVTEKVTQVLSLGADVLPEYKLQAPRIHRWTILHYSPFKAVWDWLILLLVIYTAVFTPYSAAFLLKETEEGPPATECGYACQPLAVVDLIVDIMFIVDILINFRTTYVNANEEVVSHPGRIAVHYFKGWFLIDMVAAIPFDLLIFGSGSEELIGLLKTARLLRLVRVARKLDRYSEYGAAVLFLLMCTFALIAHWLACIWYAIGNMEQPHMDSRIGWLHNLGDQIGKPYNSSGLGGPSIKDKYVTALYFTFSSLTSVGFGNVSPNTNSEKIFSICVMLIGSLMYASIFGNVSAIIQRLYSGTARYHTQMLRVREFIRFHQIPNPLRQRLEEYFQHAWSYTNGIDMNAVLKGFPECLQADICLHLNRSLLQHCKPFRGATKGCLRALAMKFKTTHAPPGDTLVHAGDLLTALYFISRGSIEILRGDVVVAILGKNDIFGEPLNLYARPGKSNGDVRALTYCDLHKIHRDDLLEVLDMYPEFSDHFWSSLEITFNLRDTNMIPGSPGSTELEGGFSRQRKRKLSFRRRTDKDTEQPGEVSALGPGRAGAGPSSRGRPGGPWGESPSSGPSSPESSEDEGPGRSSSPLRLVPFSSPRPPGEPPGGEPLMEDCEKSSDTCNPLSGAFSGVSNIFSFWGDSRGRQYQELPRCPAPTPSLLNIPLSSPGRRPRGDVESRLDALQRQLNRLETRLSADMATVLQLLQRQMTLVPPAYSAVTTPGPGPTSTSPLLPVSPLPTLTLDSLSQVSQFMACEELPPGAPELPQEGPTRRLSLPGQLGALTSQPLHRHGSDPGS
As to `Cc1cc(NC(=O)c2ccc3nc(-c4ccccc4)c(-c4ccccc4)nc3c2)no1`, the “hERG current change (%, negative = inhibition) at 1uM” value is recorded as -4.26%. To `COc1ccc(C(=O)NCc2nnc(SCC(=O)N3CCCCCC3)o2)cc1OC` belongs 16.4%; to `CCN1C(=O)CC(N2CCN(CC(=O)NC(C)C)CC2)C1=O` (centres unmarked), 10.5%; to `Cc1ccc2nc(/C(C#N)=C\c3cc(O)ccc3[N+](=O)[O-])[nH]c2c1`, 21.2%. In the case of `Cn1nnc2cc(C(=O)N3CCN(c4ccccn4)CC3)ccc21`, the “hERG current change (%, negative = inhibition) at 1uM” value stood at 13.7%. As for `NNC(=S)Nc1cccc(Cl)c1`, the figure is 5.01%; as for `O=C(COC(=O)c1cc2ccccc2oc1=O)Nc1cccc(S(=O)(=O)N2CCCCCC2)c1`, 13.3%; as for `O=C(COC(=O)CCN1C(=O)/C(=C\C=C\c2ccccc2)SC1=S)Nc1cc(F)ccc1F`, 8.36%. On to `O=C(CSc1ccc(-c2ccccc2)nn1)NCc1ccco1`, for which the “hERG current change (%, negative = inhibition) at 1uM” value worked out at 2.94%. To `O=C(c1cc(COc2c(F)cccc2F)on1)N1CCC(c2ccncc2)CC1` belongs -9.15%; to `COC(=O)Nc1sc2c(c1C(N)=O)CCC(C)C2` (centres unmarked), -3.44%; to `CCN(CC(=O)Nc1c(F)cccc1F)C(=O)CCCNC(=O)c1ccc(Cl)cc1`, 6.47%. Take `CN(CC(=O)NCc1ccc2c(c1)OCO2)S(=O)(=O)c1ccc(Br)s1`: the “hERG current change (%, negative = inhibition) at 1uM” value came to 7.62%. As for `COCC1CCN(C(=O)c2cc(COc3ccc4c(c3)CCCC4)on2)C1` (centres unmarked), the figure is 12.1%. To `COc1cc(/C=N/NC(=O)c2ccoc2C)cc(OC)c1O` belongs -1.3%. For the molecule `N#C/C(=C\c1cn(Cc2ccc(F)cc2)c2ccccc12)C(=O)NCc1ccco1`, the “hERG current change (%, negative = inhibition) at 1uM” value is 13.6%. For `CCn1c(SCC(=O)NC2CC2)nnc1-c1ccccc1OC`, the “hERG current change (%, negative = inhibition) at 1uM” value is listed as 20.3%.

Turning to `Nc1nnc(CC(=O)NCc2ccccc2)s1`, the “hERG current change (%, negative = inhibition) at 1uM” value is recorded as 11.8%. As for `COc1ccc(-c2[nH]ncc2CN2CCSCC2)c(OC)c1`, the figure is 7.49%; as for `Cc1ccc2cccc(SCC(=O)N3CCOCC3)c2n1`, 11.1%; as for `COc1ccc(C=C2C(=O)N(C)C(=O)N(C)C2=O)cc1CSc1ccccn1`, -20.1%. As for `CCCCN(C(=O)C(C)Oc1ccc(Br)cc1)c1c(N)n(Cc2ccccc2)c(=O)[nH]c1=O` (centres unmarked), the figure is 16.5%; as for `Cc1cc(C(=S)N2CCOCC2)c(C)n1-c1ccc(Cl)cc1`, 0.245%. To `CN(C)S(=O)(=O)n1cc(/C=C(\NC(=O)c2ccccc2Cl)C(=O)N2CCCC2)c2ccccc21` belongs 6.78%; to `O=C(Nc1ccc(Cl)cc1)C1CCN(C(=O)c2ccco2)CC1`, -12%.

Turning to `CN1N=C(C(=O)Nc2ccc3c(c2)CCC3)CCC1=O`, the “hERG current change (%, negative = inhibition) at 1uM” value stood at 16.6%. As for `CC(=O)Nc1ccc(OCCF)cc1`, the figure is 11.1%; as for `Clc1ccc(CSc2nnc3ccccn23)c(Cl)c1`, -10.1%; as for `CCOc1cc2c(cc1OCC)C(C(=O)O)C(c1cc(OC)c(OC)c(OC)c1)N(C)C2=O` (centres unmarked), 5.52%. Consider `COCCn1c(SCC(=O)Nc2sccc2C(N)=O)nc2cc(Cl)ccc2c1=O`, for which the “hERG current change (%, negative = inhibition) at 1uM” value is 9.47%.

Consider `Cc1ccccc1OCc1nnc(SCc2cc(=O)[nH]c3ccccc23)n1-c1ccccc1`, for which the “hERG current change (%, negative = inhibition) at 1uM” value is listed as 1.65%. As for `CC(Sc1nc2c(c(=O)n(C)c(=O)n2C)n1Cc1cc2c(cc1Cl)OCO2)C(=O)O` (centres unmarked), the figure is 22.7%; as for `COc1ccc(N(Cc2cc3ccccc3[nH]c2=O)S(=O)(=O)c2ccc(OC)cc2)cc1`, 10.1%. To `O=C(c1cccc2ccccc12)N1CCN=C1SCc1ccc([N+](=O)[O-])cc1` belongs 8.57%. As for `COc1cc(C(=O)NCc2nnc(SCC(=O)NCCc3ccccc3)o2)cc(OC)c1OC`, the figure is 9.35%; as for `CC(=O)NC(Cc1ccc(N(CCCl)CCCl)cc1)C(=O)NC(C(=O)O)C(C)C` (centres unmarked), 13.9%; as for `COC(=O)/C=C/c1c(C)nc(NCc2ccccc2)nc1Cl`, 14.6%. `COCCN(C(=O)COc1ccc(Cl)cc1)c1nnc(-c2cccnc2)s1.Cl`: the “hERG current change (%, negative = inhibition) at 1uM” value is 7.2%. To `COc1ccc(CN2CCc3c([nH]c4ccccc34)C2)c(OC)c1C` belongs -14.2%; to `CC(=O)NC(CC(=O)NCCN1C(=O)S/C(=C\c2ccccc2)C1=O)c1ccccc1` (centres unmarked), 7.28%.

In the case of `COc1cc(NC(=O)C2CCCN(c3ncccn3)C2)cc(OC)c1` (centres unmarked), the “hERG current change (%, negative = inhibition) at 1uM” value is 14.7%. In the case of `CCN1C(=O)CC(N2CCOCC2)C1=O` (centres unmarked), the “hERG current change (%, negative = inhibition) at 1uM” value is 10.8%.

In the case of `COc1ccccc1NC(=O)CSc1nnc(COc2ccc(Cl)cc2)n1Cc1ccco1`, the “hERG current change (%, negative = inhibition) at 1uM” value is given as 11.5%. As for `CC(c1ccccc1)C1CC(=O)N(c2ccccc2)C1=O` (centres unmarked), the figure is 10.5%; as for `O=C(c1nc2ccc(Cl)cn2c1CNCCn1ccnc1)N1CCCCCCC1`, 3.67%.

For the molecule `Cc1cccc(C(=O)Oc2cc(C)[nH]c(=O)c2[N+](=O)[O-])c1`, the “hERG current change (%, negative = inhibition) at 1uM” value was 17.1%. To `COc1ccccc1-c1cn(S(=O)(=O)c2ccc(F)cc2)nc1N` belongs 0.868%; to `COc1cccc(CNc2ccc3c(c2)CCC3)c1`, 15.8%; to `O=C1CC(c2ccco2)CC2=C1C(c1ccccc1)n1nc(C(F)(F)F)nc1N2` (centres unmarked), 15.4%. As for `CCc1ccc(OCC(=O)N/N=C/c2ccc(OS(=O)(=O)c3ccc(C)cc3)c(OC)c2)cc1`, the figure is 8.45%; as for `CC[C@H](C)[C@@H](NC(=O)O[C@@H]1C(=O)c2cc(Br)ccc2O[C@H]1c1cccc(OC)c1)C(=O)OC`, 7.63%; as for `CCN(CC)S(=O)(=O)c1cccc(NC(=O)COC(=O)c2cc(C)oc2C)c1`, -10.2%. On to `COc1ccc(CNC(=O)CN(Cc2ccc(F)cc2)C(=O)CCC(=O)Nc2nccs2)cc1`, for which the “hERG current change (%, negative = inhibition) at 1uM” value is given as -1.85%. To `CCOc1ccc(S(=O)(=O)NCCCN2CCOCC2)cc1` belongs 9.88%; to `COc1ccc(NC(=O)CSCc2cc(=O)n3c(C)csc3n2)cc1`, 14.9%; to `COc1ccccc1CCn1c(N)cc(=O)[nH]c1=O`, 15.5%. As to `C/C(=N\NC(=O)c1c(C)nc2ccccn12)c1ccc(N2CCOCC2)cc1`, the “hERG current change (%, negative = inhibition) at 1uM” value was determined as 6.09%. As for `COc1cc2c(cc1NC(=O)CN(C)Cc1cccc(OC)c1OC)oc1ccccc12`, the figure is 15%; as for `CCOC(=O)c1ccc(NS(=O)(=O)c2c(C)[nH]c(C)c2C(=O)N2CCCCC2)cc1`, 10.9%. `CC1CCN(S(=O)(=O)c2ccc(S(=O)(=O)NCC(=O)C(C)(C)C)cc2)CC1`: the “hERG current change (%, negative = inhibition) at 1uM” value was determined as 15.4%. To `O=C(C1CC1)N1CCC(c2nc(-c3ccc(S(=O)(=O)N4CCCC4)cc3)no2)CC1` belongs 7.72%. To `COc1ccccc1CN1C(=O)C2CC=CCC2C1=O` (centres unmarked) belongs -11.3%; to `O=S(=O)(N/N=C1/CC(c2ccccc2)Oc2ccccc21)c1ccc(Br)cc1` (centres unmarked), 12.5%; to `COC1=CC2(O)CCCC2=CC1=O` (centres unmarked), 12.4%. As for `O=C(NCCc1ccccc1)C1CCCN1C(=O)Nc1cccc(Cl)c1` (centres unmarked), the figure is 4.34%; as for `CCOC(=O)N1CCC(=NNC(=O)c2cc3ccccc3cc2O)CC1`, 6.6%. Regarding `Clc1ccc(-c2cc(-c3nnc4n3CCCCC4)c3ccccc3n2)cc1`, the “hERG current change (%, negative = inhibition) at 1uM” value worked out at 4.54%.

For the molecule `COc1ccc(-c2nn(-c3ccccc3)cc2C(=O)N2CCN(S(=O)(=O)c3cccc(F)c3)CC2)cc1`, the “hERG current change (%, negative = inhibition) at 1uM” value was 0.0555%.

`CC(C)n1c(SCC(=O)NCc2ccco2)nc2c1c(=O)n(C)c(=O)n2C`: the “hERG current change (%, negative = inhibition) at 1uM” value stood at 1.35%. To `Cc1cccc(C)c1NC(=O)C1c2cccc[n+]2CC(=O)N1Cc1ccc2c(c1)OCO2.[I-]` (centres unmarked) belongs 15%; to `CCOC(=O)/C(C#N)=C/c1ccc(OCC(=O)Nc2ccccc2)c(OC)c1`, 5.68%.

For `O=C(CSc1nnc(-c2ccc(O)cc2)n1-c1ccccc1)CC(=O)Nc1ccccc1`, the “hERG current change (%, negative = inhibition) at 1uM” value came to 7.67%. As for `CCOC(=O)c1c(S(=O)(=O)N2CCN(c3ccc(F)cc3)CC2)c(C)n(C)c1C`, the figure is 14.1%.

For the molecule `Cc1cc(N2CCOCC2)nc2ccc(Cl)cc12`, the “hERG current change (%, negative = inhibition) at 1uM” value amounted to 13.3%. To `CCc1cccc2c1NC(=O)C2(O)N1CCCC(C)C1` (centres unmarked) belongs 10.4%. For `CCN(CC)S(=O)(=O)c1cccc(NC(=O)CNc2cccc(S(=O)(=O)N3CCOCC3)c2)c1`, the “hERG current change (%, negative = inhibition) at 1uM” value is listed as 11.6%.

Regarding `Cc1nc2ccc(NC(=O)C(F)(F)F)cc2o1`, the “hERG current change (%, negative = inhibition) at 1uM” value is reported as 4.93%. To `O=C(CSc1nnc(-c2ccco2)n1Cc1ccco1)NCc1ccccc1` belongs -10.5%. `O=C(CSc1nc2c(c(=O)n1-c1ccccc1)SCC2)N1CCN(c2ccccc2)CC1`: the “hERG current change (%, negative = inhibition) at 1uM” value is given as -2.85%. To `CCCN1CCC(NC(=O)C2CC=CCC2C(=O)O)CC1` (centres unmarked) belongs 12.2%; to `N#Cc1c(N)nc2c(c1N)CC(CO)O2` (centres unmarked), -1.36%; to `FC(F)(F)c1cccc(-c2cc(C3CCNCC3)[nH]n2)c1`, 0.722%.

On to `Cc1cccc2sc(NNC(=O)c3cc(=O)c4ccccc4o3)nc12`, for which the “hERG current change (%, negative = inhibition) at 1uM” value was 7.55%.

For the molecule `Cc1c(NC(=O)CSc2nc3ccccc3n2C)c(=O)n(-c2ccccc2)n1C`, the “hERG current change (%, negative = inhibition) at 1uM” value was -3.96%. With `CC(=O)c1ccc(N2CCN(C(=O)CCC(=O)c3cccs3)CC2)cc1`, the “hERG current change (%, negative = inhibition) at 1uM” value is -12.7%.

In the case of `Cc1nn2c(N3CCN(C(=O)c4ccco4)CC3)cc(C(C)(C)C)nc2c1-c1ccccc1`, the “hERG current change (%, negative = inhibition) at 1uM” value is 2.53%.

The values are drawn from paper PMC4336329 (PLoS ONE, 2015).
